Test results taken from the supplement of paper PMC11417369.
Some of the results follow.

Each sequence was assayed on PfSIP2 AP2 domain 1 (GST-tagged) (assay: gcPBM binding intensity (ln(normalized median fluorescence intensity)); higher = stronger DNA binding).
Summary of the method: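 Binding intensity is the highest Masliner-normalised natural-log median intensity over replicate spots in either probe orientation. To obtain it, GST-tagged P. falciparum DNA-binding domains made in E. coli were incubated for 1 h on an Agilent 4 × 180k array of primer-extended double-stranded 36-bp intergenic genomic probes plus negative controls. Detection used Alexa488 anti-GST antibody with scanning at 488 nm.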
“TATGTAGATAAATAAGCACACACCAAACATATAAAA [CACACA_site1182]” was tested, and the “gcPBM binding intensity (ln)” value was 7.16. For “ATCAGTCGAGATGACAGTACACAGTAGCCAGGAAAT [XGTACX_site4932]”, the “gcPBM binding intensity (ln)” value was 6.98. In the case of “TATATATATTTAAAAAGTACAAAAAAAAAAAATGAA [XGTACX_site374]”, the “gcPBM binding intensity (ln)” value is reported as 6.99. “AATAATAAACACAATCAAATAAAATATGAAATATAA [GTGCAC_negctrl_site307]” was tested, and the “gcPBM binding intensity (ln)” value was 6.79. In the case of “CCCTGAGCACTTTCGTGTACTAATAGTAACAATAAT [XGTACX_site1418]”, the “gcPBM binding intensity (ln)” value is reported as 7.66. For “AAATGTTGAAATGATACACACATATAAATATAAATA [CACACA_site7229]”, the “gcPBM binding intensity (ln)” value was 6.94. “AAACAAATGTATATGTGTACTTATTTTTTTGTATGT [XGTACX_site7134]” was tested, and the “gcPBM binding intensity (ln)” value was 7.18. With “TTAATTTGTAAATAATGTACATATAAATGGAAAGTA [XGTACX_site2743]” the “gcPBM binding intensity (ln)” value was 7.69. In the case of “TATTTATTAAAACACACACACACACCGACAAAATAA [CACACA_site4293]”, the “gcPBM binding intensity (ln)” value is reported as 7.27. In the case of “TAATAAAACATATATACACACATTATGTATACATAT [CACACA_site1703]”, the “gcPBM binding intensity (ln)” value is reported as 6.93. In the case of “TTAATATTTACAAAATGTACAGATTATTTATTGTTG [XGTACX_site1270]”, the “gcPBM binding intensity (ln)” value is reported as 6.84. For “AAATATGTCAAATATACACACATAATAACTAGAATA [CACACA_site7151]”, the “gcPBM binding intensity (ln)” value was 6.91. In the case of “AATAATTATAATAAGGGTACGTATCTCACAGGAAAA [XGTACX_site4187]”, the “gcPBM binding intensity (ln)” value is reported as 7.17. In the case of “TTTTTTAATATTTATACATGCATGCCGATTACTATA [TGCATGCA_site26]”, the “gcPBM binding intensity (ln)” value is reported as 7.03. In the case of “ACAATACAAATATATACACACATACATACATACATA [CACACA_site5699]”, the “gcPBM binding intensity (ln)” value is reported as 7.37. “ATATATATATATATATGTACATAATTAATAATTAGA [XGTACX_site5672]” was tested, and the “gcPBM binding intensity (ln)” value was 9.37. “TAATATCATTTAGACACACACTCTTACAATATGTAA [CACACA_site5434]” was tested, and the “gcPBM binding intensity (ln)” value was 6.8. For “TCTATTAACTGATGTGCATGTTATAACCTAGAAGTA [TGCATGCA_site359]”, the “gcPBM binding intensity (ln)” value was 7.42. “AGTTCGAATATATAAAGTACATAATTATATATTTGC [XGTACX_site2604]” was tested, and the “gcPBM binding intensity (ln)” value was 6.86. With “AAAAATCGATACAAGCGTACAAAATAAAATAAAAAT [XGTACX_site5546]” the “gcPBM binding intensity (ln)” value was 7.09. With “ACCAATAATATACATACACACATAAAGGTTTATATA [CACACA_site315]” the “gcPBM binding intensity (ln)” value was 7.14. With “TTACACATATTATATATATATAAAAAAAAAAAATAT [CACACA_negctrl_site1684]” the “gcPBM binding intensity (ln)” value was 7.15. In the case of “TAAATTGAGTATATTACACACATATAAATATATTAT [CACACA_site4027]”, the “gcPBM binding intensity (ln)” value is reported as 6.88. With “TCTTATCCTACTTTTATTTTTACTTTTTTTTCTTAT [CACACA_negctrl_site111]” the “gcPBM binding intensity (ln)” value was 7.07.
